{
  "source": "the supplement of paper PMC11417369",
  "note": "± gives the standard deviation of the averaged measurements. The list shows a part of the results.",
  "data": [
    {"test_system": "PfAP2-I AP2 domain 3 (GST-tagged)", "test": "gcPBM binding intensity (ln(normalized median fluorescence intensity)); higher = stronger DNA binding", "method_in_brief": "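Binding of GST-tagged P. falciparum DNA-binding domains, expressed in E. coli and used at about 25 μg on average, was carried out for 1 h in 1× PBS containing 1% milk, 0.2 mg/ml BSA, 0.5% salmon testes DNA and 0.03% Triton X-100. The target was an Agilent 4 × 180k array of primer-extended double-stranded 36-bp intergenic genomic probes plus negative controls, read with Alexa488 anti-GST antibody at 488 nm. Binding intensity is the highest Masliner-normalised natural-log median intensity across replicate spots of either probe orientation.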", "values": [
      {"sequence": "CTGTAAAAAATATAAACACACATAGAGATATATAAA [CACACA_site6292]", "gcPBM binding intensity (ln)": "7.8 ± 0.57"},
      {"sequence": "TTTAATGTTACTCCTTGTACACAAAATAGTGTTATA [XGTACX_site8416]", "gcPBM binding intensity (ln)": "7.97 ± 0.43"},
      {"sequence": "TAAGTATATTTTATATGTACTTATATATTTAATTTT [XGTACX_site4615]", "gcPBM binding intensity (ln)": "7.37 ± 0.23"},
      {"sequence": "ATAGGTTCCCAAAATGCACACCAATGAAATTATTTA [CACACA_site8081]", "gcPBM binding intensity (ln)": "9.05 ± 0.014"},
      {"sequence": "CAAGCTTTTTCCTTTACACACATTAGTTATTTATAT [CACACA_site6781]", "gcPBM binding intensity (ln)": "8.16 ± 0.57"},
      {"sequence": "ATATTATTTTAAAGTACACACATATATTAAGATATA [CACACA_site5306]", "gcPBM binding intensity (ln)": "8.05 ± 0.31"},
      {"sequence": "TTAATATATTATCTGGTGCATAAACACGTTATACCT", "gcPBM binding intensity (ln)": "11.3 ± 0.64"},
      {"sequence": "CAGTATTACATGAGGACACACACAAAAAAAATATAT [CACACA_site8156]", "gcPBM binding intensity (ln)": "8.09 ± 0.47"},
      {"sequence": "ATGATTTCACAAGACACACACATACAAATTTATATA [CACACA_site3909]", "gcPBM binding intensity (ln)": "8.19 ± 0.52"},
      {"sequence": "TATTTTATATTTTATGCACACTTATAAGAAATATGT [CACACA_site5647]", "gcPBM binding intensity (ln)": "10 ± 0.27"},
      {"sequence": "ACTGTACTATAAAATACACACATATAAATATAAATA [CACACA_site3009]", "gcPBM binding intensity (ln)": "8.23 ± 0.16"},
      {"sequence": "TATTTTAGAGAAAAAAATAAATTACAAAATGTTAGG [CACACA_negctrl_site1645]", "gcPBM binding intensity (ln)": "7.61 ± 0.68"},
      {"sequence": "TTAAATATCCATATTTCACACATTTCGATATATATA [CACACA_site4208]", "gcPBM binding intensity (ln)": "7.68 ± 0.69"},
      {"sequence": "GAATGTAAATATTAAAGTACACAGAATATATCTTCA [XGTACX_site8149]", "gcPBM binding intensity (ln)": "7.79 ± 0.16"},
      {"sequence": "TATAATATTATATAATGTACGCATTTATTATTTAAA [XGTACX_site8326]", "gcPBM binding intensity (ln)": "7.7 ± 0.27"},
      {"sequence": "ATAATGTCATAATTATATCCTTTGGCATAAAATAAA [XGTACX_negctrl_site574]", "gcPBM binding intensity (ln)": "7.74 ± 0.18"},
      {"sequence": "CCTAAATAAATGGACACACACATATTTATATTTATA [CACACA_site6789]", "gcPBM binding intensity (ln)": "7.79 ± 0.39"},
      {"sequence": "AAATAAAATCATGAATGTACACAAAAATTATTGCAA [XGTACX_site5691]", "gcPBM binding intensity (ln)": "7.99 ± 0.43"},
      {"sequence": "TTTGAAGGAAGGGGGGGAGGGGCCATAACAAAGGAA [GTGCAC_negctrl_site408]", "gcPBM binding intensity (ln)": "10.4 ± 0.26"},
      {"sequence": "ATACCATATAATTATGTGAGAAAATATAATATTCAT [CACACA_negctrl_site310]", "gcPBM binding intensity (ln)": "7.61 ± 0.65"},
      {"sequence": "ATTTTCTTAAATAAATGTACATGGCATTAAAAGTAA [XGTACX_site5119]", "gcPBM binding intensity (ln)": "7.88 ± 0.35"},
      {"sequence": "TATTTGTATATTCATTCCTGTATTCCCTTTTTTGTA [CACACA_negctrl_site1236]", "gcPBM binding intensity (ln)": "7.75 ± 0.9"},
      {"sequence": "TGTACGTTTTTTAACACACACACAAAAAAAAAAAAA [CACACA_site6006]", "gcPBM binding intensity (ln)": "8.18 ± 0.72"},
      {"sequence": "ATATATATATATGTATGTACATAATATTTTTTTTAT [XGTACX_site5551]", "gcPBM binding intensity (ln)": "9.215 ± 0.078"},
      {"sequence": "AAAAAAAAAAAAAATACACACAAATAATAAAAATAA [CACACA_site1431]", "gcPBM binding intensity (ln)": "8.02 ± 0.4"},
      {"sequence": "TATATACGTAATAGTAGTACTTTAAAATGCGGAAAT [XGTACX_site4597]", "gcPBM binding intensity (ln)": "8.08 ± 0.64"},
      {"sequence": "TGTACGAGTCGTAGAGTGCAGTCTGGAGAAACGTAC [GTGCAC_site9682]", "gcPBM binding intensity (ln)": "9.13 ± 0.3"},
      {"sequence": "AAAAAAGATATATAAACACACATATTTATATACACA [CACACA_site6866]", "gcPBM binding intensity (ln)": "7.51 ± 0.48"},
      {"sequence": "GATAGACACGTGCACACATGCAATACTTTATTCAGT [TGCATGCA_site778]", "gcPBM binding intensity (ln)": "10.1 ± 0.32"},
      {"sequence": "ATAAATAACTTTTAAATACACACGTAAAATATATTG [CACACA_site3302]", "gcPBM binding intensity (ln)": "7.88 ± 0.36"},
      {"sequence": "ATTTATATTATGAGGAGTACAATACTTATAGATGTA [XGTACX_site7510]", "gcPBM binding intensity (ln)": "7.85 ± 0.34"},
      {"sequence": "ATATACATTTTAAATTTTAATGTAACCCATGGGAGA [CACACA_negctrl_site588]", "gcPBM binding intensity (ln)": "7.45 ± 0.6"},
      {"sequence": "TGAACCCACAAATCACGTACATATATATACACGTGT [XGTACX_site7739]", "gcPBM binding intensity (ln)": "7.81 ± 0.4"},
      {"sequence": "TTTAACAACTATTTCTGTACACATTTTTATATAATT [XGTACX_site4917]", "gcPBM binding intensity (ln)": "8.29 ± 0.42"},
      {"sequence": "TTTTTTAAATATATATGTACATATATCTATATATAT [XGTACX_site3461]", "gcPBM binding intensity (ln)": "8.47 ± 0.64"},
      {"sequence": "TTTATAATTTATAGGCGGACAGGAAAATTTTATAAA [XGTACX_site6955]", "gcPBM binding intensity (ln)": "8.38 ± 0.45"},
      {"sequence": "GCAAGGTCCACACTGGTGCATTAAAAATAAAATATA [GTGCAC_site9956]", "gcPBM binding intensity (ln)": "11.6 ± 0.41"},
      {"sequence": "TTTTTAATTTTTTTCACACATATATAAATACAAATA [CACACA_site5530]", "gcPBM binding intensity (ln)": "7.79 ± 0.4"},
      {"sequence": "AAATTACAAATAAAATGTACTCATGTTTTTATTATA [XGTACX_site7223]", "gcPBM binding intensity (ln)": "7.47 ± 0.42"},
      {"sequence": "TACAGGAATATTTTTACACACTAAAAGTTATAAACT [CACACA_site6876]", "gcPBM binding intensity (ln)": "7.57 ± 0.4"},
      {"sequence": "TTTTTCTTTTTTTGTTGTACATTTTGTAATATTTAC [XGTACX_site4102]", "gcPBM binding intensity (ln)": "7.9 ± 0.59"},
      {"sequence": "TGAACAGGTCATAATTTACACACTATATATTTTATT [CACACA_site8123]", "gcPBM binding intensity (ln)": "7.59 ± 0.6"},
      {"sequence": "TATAATATATATGTATGTACGTATGTATGATTTTGT [XGTACX_site1164]", "gcPBM binding intensity (ln)": "7.92 ± 0.49"},
      {"sequence": "AAGAAAAATTCTTCACGTACAAATAATTATATATAT [XGTACX_site7217]", "gcPBM binding intensity (ln)": "8.11 ± 0.53"}
    ]}
  ]
}
